Results taken from patent USRE50631E1, “ROR1 antibody immunoconjugates” (VelosBio Inc., priority 2017, dated 2025).
Values joined by “and” are separate entries in the source; they are usually repeats but may differ in a detail not shown here. Equal entries are not always repeated.

Assays:
ROR1 on Jeko-1 cells = target: T1, ROR1 on Jeko-1 cells (Homo sapiens, UniProt Q01973); experiment: Binding to ROR1-positive Jeko-1 cells (flow cytometry receptor binding assay); settings: 20 minutes on ice, PE secondary antibody
T1 construct: The Jeko-1 cell line, from mantle cell lymphoma, is a suspension cell line; host or cells: Jeko-1 (human mantle cell lymphoma)
T1 sequence (Q01973 30-937): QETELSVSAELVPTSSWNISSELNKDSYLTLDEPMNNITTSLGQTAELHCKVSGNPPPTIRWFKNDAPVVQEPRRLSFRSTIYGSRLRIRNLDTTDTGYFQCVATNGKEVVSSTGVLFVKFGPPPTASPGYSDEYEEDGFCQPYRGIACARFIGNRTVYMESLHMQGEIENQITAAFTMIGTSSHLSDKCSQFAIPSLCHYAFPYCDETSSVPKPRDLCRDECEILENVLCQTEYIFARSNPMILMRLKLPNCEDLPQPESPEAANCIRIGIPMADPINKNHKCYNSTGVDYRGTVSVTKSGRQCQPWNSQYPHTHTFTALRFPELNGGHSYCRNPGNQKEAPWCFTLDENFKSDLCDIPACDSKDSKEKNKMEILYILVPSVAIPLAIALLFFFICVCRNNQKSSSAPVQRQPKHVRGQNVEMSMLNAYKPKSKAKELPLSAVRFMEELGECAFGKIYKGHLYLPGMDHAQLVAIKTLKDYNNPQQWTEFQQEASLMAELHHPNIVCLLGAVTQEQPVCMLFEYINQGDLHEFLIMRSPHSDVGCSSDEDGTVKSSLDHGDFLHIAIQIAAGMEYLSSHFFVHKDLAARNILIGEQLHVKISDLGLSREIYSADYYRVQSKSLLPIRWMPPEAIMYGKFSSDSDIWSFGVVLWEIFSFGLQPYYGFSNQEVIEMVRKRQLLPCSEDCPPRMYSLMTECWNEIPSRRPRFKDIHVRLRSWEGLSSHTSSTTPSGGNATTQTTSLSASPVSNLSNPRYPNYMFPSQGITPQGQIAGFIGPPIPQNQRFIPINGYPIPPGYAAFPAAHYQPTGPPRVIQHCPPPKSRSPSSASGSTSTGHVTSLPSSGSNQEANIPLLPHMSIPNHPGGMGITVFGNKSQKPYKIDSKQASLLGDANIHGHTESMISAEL
Experimental: The binding to tumor cells by antibodies Ab1 and 4A5, as well as ADC constructs derived from those antibodies (ADC-A and ADC-T), was evaluated. First, the binding of Ab1 to two ROR1-positive human tumor cell lines representing different cancer types was tested. The Jeko-1 cell line, from mantle cell lymphoma, is a suspension cell line, while the MDA-MB-231 cell line, from triple negative breast cancer, is an adherent cell line. The cell lines have different levels of ROR1 expression, with Jeko-1 cells displaying about 13507 cell surface copies and the MDA-MB-231 cells displaying about 21015 cell surface copies. The Jeko-1 (ATCC Cat. No. CRL-3006) and MDA-MB-231 (ATCC Cat. No. […]) cell lines were purchased from the American Type Culture Collection and were maintained according to the ATCC recommendations.
Jeko-1 cells (FIG. 2A) or MDA-MB-231 cells (FIG. 2B) were incubated with 0, 1, 10, 100, or 1000 ng/mL of Ab1 for 20 minutes on ice. After washing off unbound antibody, the cells were incubated with secondary anti-human IgG antibody labeled with phycoerythrin (PE) for an additional 20 minutes. The amount of PE fluorescence was measured using the BDFACS Verse analyzer and FlowJo V10 software. The PE signal for the highest concentration was used as the maximal binding signal to calculate the % maximal binding. EC50 was calculated using GraphPad Prism 7. […]

OvCar4 = experiment: Cytotoxicity in vitro (CellTiter-Glo viability), OvCar4; assay type: cell-based, human; settings: OvCar4 (Ovarian), 72 hours

B1: ADC-A: Ab1 conjugated via MAL (mc)-VC-PAB linker to MMAE (conjugate)
heavy: QVQLQESGPGLVKPSQTLSLTCTVSGYAFTAYNIHWVRQAPGQGLEWMGSFDPYDGGSSYNQKFKDRLTISKDTSKNQVVLTMTNMDPVDTATYYCARGWYYFDYWGHGTLVTVSS[skipping human IgG1 constant region]
light: DIVMTQTPLSLPVTPGEPASISCRASKSISKYLAWYQQKPGQAPRLLIYSGSTLQSGIPPRFSGSGYGTDFTLTINNIESEDAAYYFCQQHDESPYTFGEGTKVEIKRTVAAPSVFIFPPSDEQLKSGTASVVCLLNNFYPREAKVQWKVDNALQSGNSQESVTEQDSKDSTYSLSSTLTLSKADYEKHKVYACEVTHQGLSSPVTKSFNRGEC
ROR1 on Jeko-1 cells
  EC50 of binding to cells: 0.017 µg/mL and 0.02157 µg/mL and 0.0221 µg/mL
OvCar4
  EC50: 283 nM
